The record followed here is paper PMC8568969.

Protein sequences, listed by entry. Tags and fused reporters are not part of them. Lines headed by an entry give the natural chain unless they say otherwise; changes in a name come on top. Residues count along the entry.
UniProt Q9BUA3: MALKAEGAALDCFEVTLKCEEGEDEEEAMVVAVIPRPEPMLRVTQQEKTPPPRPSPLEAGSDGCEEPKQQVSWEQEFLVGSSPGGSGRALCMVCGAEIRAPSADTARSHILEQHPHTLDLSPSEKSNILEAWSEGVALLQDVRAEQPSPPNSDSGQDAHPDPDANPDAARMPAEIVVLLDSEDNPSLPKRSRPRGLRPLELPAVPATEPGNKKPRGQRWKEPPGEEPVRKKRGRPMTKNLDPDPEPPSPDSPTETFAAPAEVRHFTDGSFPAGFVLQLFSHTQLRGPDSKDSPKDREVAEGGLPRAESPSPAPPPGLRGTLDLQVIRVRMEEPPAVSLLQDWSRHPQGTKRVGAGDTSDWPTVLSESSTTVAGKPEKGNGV
GFP-SPINDOC 115–165aa: residues 115-165 of Q9BUA3
UniProt P09874: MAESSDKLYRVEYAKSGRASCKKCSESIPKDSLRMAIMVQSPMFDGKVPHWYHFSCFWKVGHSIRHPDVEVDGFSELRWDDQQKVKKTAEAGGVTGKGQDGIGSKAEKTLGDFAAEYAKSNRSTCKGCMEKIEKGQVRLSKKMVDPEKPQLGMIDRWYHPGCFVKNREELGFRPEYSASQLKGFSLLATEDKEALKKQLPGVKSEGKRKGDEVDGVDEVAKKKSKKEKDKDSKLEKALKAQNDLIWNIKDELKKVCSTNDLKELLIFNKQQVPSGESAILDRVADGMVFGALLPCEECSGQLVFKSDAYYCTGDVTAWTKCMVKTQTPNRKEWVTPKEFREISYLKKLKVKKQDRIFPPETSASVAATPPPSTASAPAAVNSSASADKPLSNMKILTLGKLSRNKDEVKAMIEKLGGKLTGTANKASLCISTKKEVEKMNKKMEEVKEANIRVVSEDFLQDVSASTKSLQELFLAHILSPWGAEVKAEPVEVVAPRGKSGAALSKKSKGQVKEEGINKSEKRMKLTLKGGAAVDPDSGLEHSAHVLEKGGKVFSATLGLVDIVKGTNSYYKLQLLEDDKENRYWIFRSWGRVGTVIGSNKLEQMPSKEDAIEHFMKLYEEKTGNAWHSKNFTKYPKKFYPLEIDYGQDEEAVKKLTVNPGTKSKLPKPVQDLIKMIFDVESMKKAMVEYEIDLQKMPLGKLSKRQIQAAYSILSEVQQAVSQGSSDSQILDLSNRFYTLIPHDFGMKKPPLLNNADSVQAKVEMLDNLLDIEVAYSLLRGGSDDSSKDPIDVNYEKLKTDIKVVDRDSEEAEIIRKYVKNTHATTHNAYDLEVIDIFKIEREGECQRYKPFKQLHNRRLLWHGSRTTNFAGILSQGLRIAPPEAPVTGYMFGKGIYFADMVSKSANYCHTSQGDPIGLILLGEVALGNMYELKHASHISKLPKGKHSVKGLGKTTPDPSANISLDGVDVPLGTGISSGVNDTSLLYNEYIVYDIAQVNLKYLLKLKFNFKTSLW
UniProt Q9UGN5: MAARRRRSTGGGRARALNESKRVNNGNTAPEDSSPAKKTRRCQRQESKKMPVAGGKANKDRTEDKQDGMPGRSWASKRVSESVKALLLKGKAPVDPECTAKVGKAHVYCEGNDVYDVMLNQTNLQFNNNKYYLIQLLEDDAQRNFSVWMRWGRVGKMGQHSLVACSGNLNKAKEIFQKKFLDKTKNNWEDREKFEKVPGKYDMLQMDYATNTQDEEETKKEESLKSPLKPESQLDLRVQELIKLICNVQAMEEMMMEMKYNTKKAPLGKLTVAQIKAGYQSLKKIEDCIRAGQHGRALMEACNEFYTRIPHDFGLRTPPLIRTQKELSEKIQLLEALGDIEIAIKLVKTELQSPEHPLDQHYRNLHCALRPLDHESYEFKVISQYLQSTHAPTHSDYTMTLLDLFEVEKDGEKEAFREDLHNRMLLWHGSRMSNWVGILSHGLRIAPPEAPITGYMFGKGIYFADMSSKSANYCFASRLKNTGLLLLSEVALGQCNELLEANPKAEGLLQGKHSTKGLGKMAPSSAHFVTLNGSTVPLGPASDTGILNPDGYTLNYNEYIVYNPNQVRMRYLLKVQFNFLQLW
UniProt Q9Y657: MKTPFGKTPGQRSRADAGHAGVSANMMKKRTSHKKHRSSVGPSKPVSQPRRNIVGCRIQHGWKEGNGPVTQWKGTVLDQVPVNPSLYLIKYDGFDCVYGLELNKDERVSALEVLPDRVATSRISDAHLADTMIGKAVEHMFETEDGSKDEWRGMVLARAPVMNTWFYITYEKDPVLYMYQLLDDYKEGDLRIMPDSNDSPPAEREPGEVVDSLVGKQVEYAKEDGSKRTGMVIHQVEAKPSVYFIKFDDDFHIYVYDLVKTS

Results are given in words; binding and its absence hold for the method and conditions named. For part of these data: In cells and extracts the contact can be indirect. Some results given as binding are weak or reduced against the parent protein; the word gives no strength.

Assay [1] addresses GFP-SPINDOC 115–165aa (UniProt Q9BUA3). In words: co-IP; anti-GFP or anti-Flag IP from lysates of transfected cells (48 h); mild lysis buffer (20 mM Tris-HCl pH 8.0, 150 mM NaCl, 1 mM EDTA, 0.5% Nonidet P-40), protein A/G resin, 4 °C, Western blot. (In western blotting, separated proteins are transferred to a membrane and probed.)
The target in assay [2] is GFP-SPINDOC (UniProt Q9BUA3). The description is as above.
In assay [3] the target is GFP-SPINDOC 115–165aa (UniProt Q9BUA3). In words: co-IP; anti-GFP IP of co-transfected GFP-SPINDOC 115–165aa and Flag-PARP1-DBD, in the presence or absence of DNase I and ethidium bromide.
The target in assay [4] is PARP1 (endogenous) (human (endogenous in HEK293T)) (UniProt P09874). Description: co-IP; reciprocal IPs for GFP-SPINDOC and PARP1, cells with or without Etoposide treatment.
The next assay concerns the target Flag-PARP1 (UniProt P09874). Description: co-IP; anti-GFP or anti-Flag IP from lysates of transfected cells (48 h); mild lysis buffer (20 mM Tris-HCl pH 8.0, 150 mM NaCl, 1 mM EDTA, 0.5% Nonidet P-40), protein A/G resin, 4 °C, Western blot.
Assay [5] has as its target GFP-SPINDOC (UniProt Q9BUA3). Description: co-IP; reciprocal IPs for GFP-SPINDOC and PARP1, cells with or without Etoposide treatment.
The target of assay [6] is SPINDOC (endogenous) (human (endogenous in HEK293T)) (UniProt Q9BUA3). Description: co-sedimentation; 15–35% glycerol gradient of lysates of HEK293T cells or of HEK293T cells transfected with GFP-SPINDOC, 4 °C, 18 h, 26 fractions analysed by Western blot.
Assay [7] deals with GFP-SPINDOC (UniProt Q9BUA3). Described as above.
The target in the next assay is GST-SPINDOC (UniProt Q9BUA3). Description: pull-down; in vitro GST pulldown: purified GST or GST-SPINDOC incubated with recombinant PARP1, in the presence or absence of sheared DNA; both purified.

Take Flag-PARP1 (from UniProt P09874 1-1014): the binding entry is on record as “no binding” in the assay with GFP-SPINDOC 115–165aa [1] and “binds” in the assay with GFP-SPINDOC [2].
In the case of “Flag-PARP1-DBD (from UniProt P09874 1-373) (domain or fragment)”, the binding entry with GFP-SPINDOC [2] and with GFP-SPINDOC 115–165aa [3] was “binds” in each case.
Take GFP-SPINDOC (from UniProt Q9BUA3 1-381): the binding entry (in assay [4]; with Flag-PARP1) was “binds” throughout.
Take “PARP1 (endogenous) (from UniProt P09874 1-1014)”: the binding result (with GFP-SPINDOC [5]; in assay [6]; with GFP-SPINDOC [7]) was “binds” throughout.
With PARP2 (from UniProt Q9UGN5 1-583), in the assay with GFP-SPINDOC [2], the binding entry is on record as “no binding”.
For SPIN1 (from UniProt Q9Y657 1-262), the binding entry with Flag-PARP1 is on record as “no binding”.
For “recombinant PARP1 (from UniProt P09874 1-1014) (enzyme)”, the binding entry in the assay with GST-SPINDOC was “binds”.
